No constants are given. Whether binding was seen depends on the method and setting. For some of these results: Binding seen in cells or lysates may run through a third protein. Some results given as binding are weak or reduced against the parent protein; the word gives no strength. For some of these results: Tags and fused reporters may be left off the sequences shown.
Assays:
[1] = molecular target: T1, yellow fluorescent protein (YFP)-tagged pUL7 (HSV-1 strain KOS) (UniProt P10191); test: co-IP
T1 sequence: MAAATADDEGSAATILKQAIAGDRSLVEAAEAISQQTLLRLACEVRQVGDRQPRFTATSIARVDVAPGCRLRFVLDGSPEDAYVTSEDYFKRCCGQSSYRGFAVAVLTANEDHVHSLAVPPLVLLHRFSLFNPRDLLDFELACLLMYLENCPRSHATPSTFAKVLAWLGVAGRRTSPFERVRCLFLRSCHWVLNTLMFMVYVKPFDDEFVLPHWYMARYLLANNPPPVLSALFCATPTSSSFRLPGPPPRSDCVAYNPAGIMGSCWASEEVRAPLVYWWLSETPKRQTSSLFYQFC

[2] = molecular target: T2, pUL7-GST (HSV-1 strain KOS) (UniProt P10191); test: pull-down; both purified
T2 sequence: T1 sequence

GST-pUL7 (HSV-1) = molecular target: T3, GST-pUL7 (HSV-1) (UniProt P10191); test: pull-down
T3 sequence: T1 sequence

GST-pUL51 (HSV-1) = GST-pUL51 (HSV-1) (UniProt P10235); test: pull-down
pUL51 (HSV-1 strain KOS) = pUL51 (HSV-1 strain KOS) (UniProt P10235); test: co-IP

## pUL51 (from UniProt P10235 1-244)
[1]
  binding: binds

## His6-pUL51(29-170) (from UniProt P10235 29-170) (domain or fragment)
[2]
  binding: binds

## GFP-pUL51 (from UniProt P10235 1-244)
GST-pUL7 (HSV-1)
  binding: binds

## GFP-pUL48 (from UniProt P06492 1-490)
GST-pUL7 (HSV-1)
  binding: no binding
GST-pUL51 (HSV-1)
  binding: no binding

B1: GFP-pUL7 (protein, UniProt P10191 1-296)
chain: T1 sequence
GST-pUL51 (HSV-1)
  binding: binds

B2: pUL7 (protein, UniProt P10191 1-296)
chain: T1 sequence
pUL51 (HSV-1 strain KOS)
  binding: binds

Source: article PMC5215335
